Data on one molecule can be found in patent US20030211992A1 (published 2003).

In this experiment the target is T1, recombinant human IGFBP-3 (human, UniProt P17936).
T1 construct: biotinylated and held on a streptavidin chip in the ALS experiment
The experiment is described as follows: BIAcore. On the procedure:
Carboxymethylated dextran biosensor chips (CM5, BIAcore Inc.) were activated with EDC (N-ethyl-N′-(3-dimethylaminopropyl)-carbodiimide hydrochloride) and NHS(N-hydroxysuccinimide) according to the supplier's instructions. For immobilization, IGF mutants in 20 mM sodium acetate, pH 4.8, were injected onto the biosensor chip at a concentration of 50 μg/ml to yield approximately 450-600 RU's (resonance-responce units) of covalently-coupled protein. Unreacted groups were blocked with an injection of 1 M ethanolamine. […] Association rates (kₐ) and dissociation rates (kd) were calculated separately using a 1:1 Langmuir™ association model in the BIACORE™ evaluation software v. 3.0. The equilibrium dissociation constant (KD) was calculated as kd/kₐ.
(Surface plasmon resonance follows binding to a sensor surface in real time, without labels.)

T1 sequence (P17936 28-291 limits assumed): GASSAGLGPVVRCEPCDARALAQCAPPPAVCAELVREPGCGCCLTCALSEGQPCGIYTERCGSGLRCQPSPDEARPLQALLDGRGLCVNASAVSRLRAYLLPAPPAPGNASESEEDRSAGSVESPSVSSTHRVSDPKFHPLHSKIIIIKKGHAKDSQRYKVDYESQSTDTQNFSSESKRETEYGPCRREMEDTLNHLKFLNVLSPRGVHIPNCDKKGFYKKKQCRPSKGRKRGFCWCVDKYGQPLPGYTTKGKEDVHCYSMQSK

B1: F16A/F49A IGF-1 (purified, soluble) (ligand)
chain: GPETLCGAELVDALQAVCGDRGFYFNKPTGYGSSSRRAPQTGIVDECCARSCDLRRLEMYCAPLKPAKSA
On to B1, for which the “KD (mutant)/KD (IGF-1)” value was determined as 65.6.
